Reference: patent US12491259B2, “Anti-variable MUC1* antibodies and uses thereof” (Minerva Biotechnologies Corporation, priority 2022, dated 2025)

Columns and labels:
Format in all cases: cell-based
[1] = tested on: interferon-gamma (IFN-g) secretion from the T cells; experiment: ELISA of IFN-g secreted by T cells into conditioned media; settings: T47D + human T cells
Source text: (§1) As an example of how antibodies of the invention can be incorporated into bispecific antibodies, a bispecific antibody using a knob-in-hole, also known as KIH (Spiess et al. Molecular Immunology 67, 95-106 (2015)), format was constructed. In this example, a first arm of the antibody is the humanized anti-MUC1* antibody 20A10, also known as hu20A10, with a 14616 human framework region; the second arm of the antibody is either the anti-CD3 antibody OKT3 or 12F6, which both bind to the same epitope on human T cells. […] In addition, cancer cell killing was quantified. Measurement of the cytotoxicity of the anti-MUC1* targeting bispecific antibody in which 20A10 binds to the extra cellular domain of MUC1* on the tumor cell surface and an anti-CD3 antibody called OKT3 was measured using an LDH cytotoxicity assay. […] In addition to analyzing the target cancer cells, the T cells were also analyzed. […] Secretion of IFN-g from the T cells into the conditioned media was measured in an ELISA assay (FIG. 1O). […]
(§2) In yet another example, an anti-MUC1*/anti-CD3 bispecific antibody is constructed using 20A10 for binding to the extra cellular domain of MUC1* positive cancer cells and an anti-CD3 antibody 12F6 to bind to the T cells. […] In addition, cancer cell killing was quantified. […] In addition to analyzing the target cancer cells, the T cells were also analyzed. […]

[2] = tested on: TNF-alpha secretion from the T cells; experiment: ELISA of TNF-alpha secreted by T cells into conditioned media; settings: T47D + human T cells
Source text: as §1, §2

[3] = tested on: HCT-MUC1* cells (HCT-116 colon cancer cells transduced to express MUC1*); experiment: Bispecific-mediated T cell / cancer cell clustering (photographs of co-culture); settings: HCT-MUC1* + human T cells, bispecific 0.05-1,000 ng/mL
Procedure: 20A10 is a humanized anti-MUC1* antibody and OKT3 is an antibody that binds to CD3 that is present on human T cells. […] In FIG. 3A the concentration of the bispecific antibody is 1,000 ng/mL. In FIG. 3B concentration is 333 ng/mL. In FIG. 3C concentration is 111 ng/mL. In FIG. 3D concentration is 37 ng/mL. In FIG. 3E concentration is 12.3 ng/mL. In FIG. 3F concentration is 4.1 ng/ml. In FIG. 3G concentration is 1.3 ng/mL. In FIG. 3H concentration is 0.4 ng/mL. In FIG. 3I concentration is 0.15 ng/mL. In FIG. 3J concentration is 0.05 ng/ml. FIG. 3K is a control well in which both T cells and cancer cells are present, but no bispecific antibody has been added. […]
as §1, with “constructed.” for “constructed. In this example, a first arm of the antibody is the humanized anti-MUC1* antibody 20A10, also known as hu20A10, with a 14616 human framework region; the second arm of the antibody is either the anti-CD3 antibody OKT3 or 12F6, which both bind to the same epitope on human T cells.”

T47D breast cancer cells [4] = experiment: as above; settings: T47D + human T cells, bispecific 0.05-1,000 ng/mL
Procedure: (§3) 20A10 is a humanized anti-MUC1* antibody and OKT3 is an antibody that binds to CD3 that is present on human T cells. […] In FIG. 1A the concentration of the bispecific antibody is 1,000 ng/mL. In FIG. 1B concentration is 333 ng/mL. In FIG. 1C concentration is 111 ng/mL. In FIG. 1D concentration is 37 ng/ml. In FIG. 1E concentration is 12.3 ng/mL. In FIG. 1F concentration is 4.1 ng/mL. In FIG. 1G concentration is 1.3 ng/ml. In FIG. 1H concentration is 0.4 ng/mL. In FIG. 1I concentration is 0.15 ng/mL. In FIG. 1J concentration is 0.05 ng/ml. […] FIG. 1L is a control well in which only cancer cells are present.
(§4) 20A10 is a humanized anti-MUC1* antibody and 12F6 is an antibody that binds to CD3 that is present on human T cells. […] In FIG. 2A the concentration of the bispecific antibody is 1,000 ng/mL. In FIG. 2B concentration is 333 ng/mL. In FIG. 2C concentration is 111 ng/mL. In FIG. 2D concentration is 37 ng/mL. In FIG. 2E concentration is 12.3 ng/ml. In FIG. 2F concentration is 4.1 ng/ml.

T47D breast cancer cells [5] = experiment: LDH cytotoxicity assay, cancer cells co-cultured with human T cells and bispecific antibody; settings: T47D + human T cells
Procedure: as §3, §4

Molecule	bispecific concentration for half-maximal secretion of IFN-g [1] [ng/mL]	bispecific concentration for half-maximal secretion of TNF-α [2] [ng/mL]	joining together of T cells and MUC1* positive cancer cells (cell clustering) [3]	joining together of T cells and MUC1* positive cancer cells (cell clustering) (T47D breast cancer cells [4])	cancer cell killing (LDH cytotoxicity, A490) (T47D breast cancer cells [5])
20A10-OKT3-BiTE: knob-in-hole bispecific: humanized anti-MUC1* antibody 20A10 arm and anti-CD3 antibody OKT3 arm (protein, left off: small tags and cut ends, knob-in-hole bispecific: humanized anti-MUC1* antibody 20A10 arm and anti-CD3 antibody OKT3 arm) chain 1: QVQLVESGGGLVKPGGSLRLSCAASGFTFSTYAMSWIRQAPGKGLEWVASIGRAGSTYYSDSVKGRFTISRDNAKNSLYLQMNSLRAEDTAVYYCARGPIYNDYDEFAYWGQGTLVTVSSGGGGSGGGGSGGGGSEIVLTQSPATLSLSPGERATLSCKSSQSVLYSSNQKNYLAWYQQKPGQAPRLLIYWASTRESGIPARFSGSGSGTDFTLTISSLEPEDFAVYYCHQYLSSLTFGGGTKVEIKR[no letters for human IgG1 Fc with changes] chain 2: QVQLVQSGGGVVQPGRSLRLSCKASGYTFTRYTMHWVRQAPGKGLEWIGYINPSRGYTNYNQKVKDRFTISTDKSKSTAFLQMDSLRPEDTAVYYCARYYDDHYCLDYWGQGTTLTVSSGGGGSGGGGSGGGGSDIQMTQSPSSLSASVGDRVTITCSASSSVSYMNWYQQTPGKAPKRWIYDTSKLASGVPSRFSGSGSGTDYTFTISSLQPEDIATYYCQQWSSNPFTFGQGTKLQITR[no letters for human IgG1 Fc with changes]TGWSHPQFEK	12.3	12.3	dose-dependent cell clustering	–	–
20A10-12F6-BiTE: knob-in-hole bispecific: humanized anti-MUC1* antibody 20A10 arm and anti-CD3 antibody 12F6 arm (protein, left off: small tags and cut ends, knob-in-hole bispecific: humanized anti-MUC1* antibody 20A10 arm and anti-CD3 antibody 12F6 arm) chain 1: QVQLVESGGGLVKPGGSLRLSCAASGFTFSTYAMSWIRQAPGKGLEWVASIGRAGSTYYSDSVKGRFTISRDNAKNSLYLQMNSLRAEDTAVYYCARGPIYNDYDEFAYWGQGTLVTVSSGGGGSGGGGSGGGGSEIVLTQSPATLSLSPGERATLSCKSSQSVLYSSNQKNYLAWYQQKPGQAPRLLIYWASTRESGIPARFSGSGSGTDFTLTISSLEPEDFAVYYCHQYLSSLTFGGGTKVEIKR[no letters for human IgG1 Fc with changes] chain 2: QVQLVQSGGGVVQPGRSLRLSCKASGYTFTSYTMHWVRQAPGKGLEWIGYINPSSGYTKYNQKFKDRFTISADKSKSTAFLQMDSLRPEDTGVYFCARWQDYDVYFDYWGQGTPVTVSSGGGGSGGGGSGGGGSDIQMTQSPSSLSASVGDRVTMTCRASSSVSYMHWYQQTPGKAPKPWIYATSNLASGVPSRFSGSGSGTDYTLTISSLQPEDIATYYCQQWSSNPPTFGQGTKLQITR[no letters for human IgG1 Fc with changes]TGWSHPQFEK	50	200	dose-dependent cell clustering	dose-dependent cell clustering	potent killer of MUC1* positive tumor cells

Marks after values point to notes of the source that are not given here.
